PubChem BioAssay (Tox21)
“And” between values parts separate entries of the source, which are not always exact repeats. Identical values can stand only once. This list was built around the results that the source calls inconclusive (neither active nor inactive); the mix of calls is not that of the screen. Entries that show only a call come without a potency. For some assays here: Potencies of inconclusive entries are doubtful fits and often do not repeat. The source made the active and inactive calls. Unless noted, calls follow the shape of the dose curve; as a rule, active = well fitted curve in the direction sought with a large enough effect in the repeat runs; inconclusive = weak or mixed curves; inactive = no such curve, though single readings can be large; an effect the other way counts as inactive or inconclusive.

Experiments:
[1] = target: Vitamin D3 receptor (Homo sapiens) (UniProt P11473); assay: qHTS assay to identify small molecule agonists of the vitamin D receptor (VDR) signaling pathway (AID 743222; calls by dose curve); settings: HEK293T VDR-UAS-bla, beta-lactamase FRET ratio, 16 h; activation: at 63.5 µM (top of the series) unless noted
Outline: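 VDR-bla cells plated 4 h at 37 C, then exposed to compounds for 16 h at 37 C. Beta-lactamase reporter activity measured by fluorescence after 2 h room-temperature loading with LiveBLAzer B/G FRET substrate.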

[2] = target: Nuclear receptor subfamily 1 group I member 2 (Homo sapiens) (UniProt O75469); assay: Human pregnane X receptor (PXR) small molecule agonists, qHTS assay (AID 1346982); also: nearly all actives have a fitted effect of over 35% in size; also: potency is read from the fitted curve at half-maximal effect
Outline: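 PXR-Luc HepG2 reporter cells (CYP3A4-driven luciferase) in 5% charcoal-stripped FBS medium, plated 5 h before compound addition, then treated 24 h at 37C. Luciferase read by ONE-Glo luminescence after 30 min at room temperature.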

[3] = qHTS assay for identifying genotoxic compounds that show differential cytotoxicity against isogenic chicken DT40 cell lines with known DNA damage response pathways - Rad54/Ku70 mutant cell line (AID 743015); settings: DT40 Rad54/Ku70 mutant viability, CellTiter-Glo, 40 h; activity change, negative = cytotoxicity: at 66.8 µM (top of the series) unless noted; also: nearly all actives have a fitted effect of over 60% in size
[4] = qHTS assay to identify small molecule agonists of the farnesoid-X-receptor (FXR) signaling pathway - cell viability counter screen (AID 743218); settings: FXR-bla HEK293T viability, CellTiter-Glo luminescence, 16 h; viability change, negative = cytotoxic: at 62.6 µM (top of the series) unless noted; also: nearly all actives have a fitted effect of over 45% in size; also: potency is read from the fitted curve at half-maximal effect
Outline: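 FXR-UAS-bla HEK 293T cells exposed to compounds for 16 h at 37C. Cytotoxicity read in the same wells by CellTiter-Glo luminescence after 30 min at room temperature, following the beta-lactamase FRET read.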

[5] = qHTS assay to identify small molecule antagonists of the vitamin D receptor (VDR) signaling pathway - cell viability counter screen (AID 743225); settings: VDR-bla HEK293T viability, CellTiter-Glo luminescence, 16 h; viability change, negative = cytotoxic: at 61 µM (top of the series) unless noted; also: nearly all actives have a fitted effect of over 50% in size; also: potency is read from the fitted curve at half-maximal effect
Outline: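 Luminescent cell viability (CellTiter-Glo) in VDR-bla HEK 293T cells after 16 h compound exposure at 37C in the presence of 3 nM final 1-alpha,25-dihydroxy vitamin D3.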

[6] = qHTS assay to identify small molecule antagonists of the peroxisome proliferator-activated receptor delta (PPARd) signaling pathway - cell viability counter screen (AID 743213); settings: PPARd-bla HEK293H viability, CellTiter-Glo luminescence, 17 h; viability change, negative = cytotoxic: at 62 µM (top of the series) unless noted; also: potency is read from the fitted curve at half-maximal effect; nearly all actives have a fitted effect of over 50% in size
Outline: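 HEK293H PPARd UAS-bla cells, 5 h pre-incubation, compound + L165041 300 nM final, 17 h 37 C; B/G FRET substrate 2 h RT; then CellTiter-Glo 30 min RT, luminescence.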

[7] = qHTS assay to identify small molecule antagonists of the thyroid receptor (TR) signaling pathway (AID 743065); also: nearly all actives have a fitted effect of over 55% in size; also: potency is read from the fitted curve at half-maximal effect
Outline: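 GH3.TRE-Luc rat pituitary cells (two TREs driving luciferase) were dosed with compound, then stimulated with 1 nM T3 (final) for 23.5 h at 37 C. ONE-Glo luminescence was the read-out, with CellTiter-Fluor fluorescence as the cytotoxicity counter-screen.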

[8] = qHTS assay to identify small molecule antagonists of the estrogen receptor alpha (ER-alpha) signaling pathway - cell viability counter screen (AID 743074; calls by dose curve;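 also: HEK293 cells carrying ER-alpha-UAS-bla reporter stimulated with 17beta-estradiol; potency is read from the fitted curve at half-maximal effect; nearly all actives have a fitted effect of over 45% in size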)
[9] = qHTS assay for small molecule activators of the heat shock response signaling pathway (AID 743210; active = well fitted activation curve with a large enough effect in the signal ratio in the repeat runs, with a control signal flat, not every such curve was filed as active; inconclusive = weak or mixed curves; the % refers to the signal ratio; also: potency is read from the fitted curve at half-maximal effect); settings: HeLa HSE-bla reporter, beta-lactamase ratio, 5 h; activation: at 62.6 µM (top of the series) unless noted
Outline: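 HSE-bla HeLa cells (beta-lactamase reporter under heat shock response elements), plated overnight, then exposed to compounds 5 h at 37 C; LiveBLAzer B/G FRET substrate added, 2.5 h at room temperature, fluorescence intensity read.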

[10] = qHTS assay to identify small molecule agonists of the retinoic acid receptor (RAR) signaling pathway (AID 1159553); settings: C3RL4 RARE luciferase reporter, agonist, 6 h; activation: at 73.3 µM (top of the series) unless noted
Outline: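 C3RL4 RARE-luciferase cells were seeded at 1,000/well and grown overnight at 37 C, then exposed to compounds for 6 hr at 37 C, 5% CO2. Luciferase reagent was added and luminescence was read after 30 min at room temperature.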

[11] = target: Estrogen receptor beta (Homo sapiens) (UniProt Q92731); assay: qHTS assay to identify small molecule agonists of the estrogen receptor beta (ER-beta) signaling pathway (AID 1259377; active = well fitted activation curve with a large enough effect in the signal ratio in the repeat runs, not every such curve was filed as active; inconclusive = weak or mixed curves, or effect the other way; the % refers to the signal ratio; also: potency is read from the fitted curve at half-maximal effect); settings: ER-beta-UAS-bla HEK293T, beta-lactamase FRET ratio, 16 h; activation: at 92.4 µM (top of the series) unless noted
Outline: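 Screening used GripTite ER-beta-UAS-bla cells held in 2% charcoal-stripped FBS medium. After overnight (16 hr) compound incubation at 37C, beta-lactamase activity was detected with a FRET substrate by fluorescence.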

[12] = qHTS assay to identify small molecule agonists of the estrogen receptor beta (ER-beta) signaling pathway - cell viability counter screen (AID 1259380); also: nearly all actives have a fitted effect of over 30% in size; also: potency is read from the fitted curve at half-maximal effect
Outline: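 ER-beta-UAS-bla HEK293T cells in medium with 2% charcoal-stripped FBS, pre-incubated 6 hr, then treated 16 hr at 37C. Cytotoxicity read in the same wells by CellTiter-Glo luminescence after 30 min at room temperature.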

[13] = qHTS assay to identify small molecule antagonists of the estrogen receptor alpha (ER-alpha) signaling pathway using the BG1 cell line - cell viability counter screen (AID 743081); settings: BG1Luc4E2 viability, CellTiter-Fluor, 22 h; activity change, negative = cytotoxicity: at 70.3 µM (top of the series) unless noted;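 also: compound given together with 17beta-estradiol as the ER stimulus; nearly all actives have a fitted effect of over 45% in size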; also: potency is read from the fitted curve at half-maximal effect
[14] = qHTS assay to identify small molecule agonists of H2AX - cell viability counter screen (AID 1224847; calls by dose curve; also: nearly all actives have a fitted effect of over 30% in size; also: potency is read from the fitted curve at half-maximal effect; as to activity change, negative = cytotoxicity: top concentration of the series differs between compounds)
Outline: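 Read-out: CellTiter-Glo luminescence, 30 min RT. Cells: wild-type CHO-K1, 1000/well, 10% FBS, plated overnight at 37C. Treatment: 15 concentrations, 3 hr, 37C, 0.76% DMSO.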

[15] = qHTS RealTime-Glo MT Cell Viability Assay in HEK293 cells - 16 hour (AID 1224872); also: nearly all actives have a fitted effect of over 50% in size; also: potency is read from the fitted curve at half-maximal effect; as to activity change, negative = cytotoxicity: top concentration of the series differs between compounds
Outline: (§1)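 Nonlytic real-time viability readout: viable cells convert prosubstrate to NanoLuc substrate, giving luminescence proportional to live cell number. HEK293, 600 cells/well, compound added after 5 h, continuous culture at 37 C.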

[16] = qHTS RealTime-Glo MT Cell Viability Assay in HEK293 cells - 24 hour (AID 1224886); also: nearly all actives have a fitted effect of over 50% in size; also: potency is read from the fitted curve at half-maximal effect; as to activity change, negative = cytotoxicity: top concentration of the series differs between compounds
Outline: as §1

[17] = qHTS RealTime-Glo MT Cell Viability Assay in HEK293 cells - 8 hour (AID 1224887); also: nearly all actives have a fitted effect of over 50% in size; also: potency is read from the fitted curve at half-maximal effect; as to activity change, negative = cytotoxicity: top concentration of the series differs between compounds
Outline: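 600 cells/well were plated with the nonlytic NanoLuc/prosubstrate reagent, pre-incubated 5 h, then given 23 nL of compound in DMSO. Incubation at 37 C for 40 h, with luminescence from viable-cell-reduced substrate read repeatedly from 0 h.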

[18] = Caspase-3/7 induction in CHO-K1 cells by small molecules, qHTS cell viability counter screen (AID 1346979); also: nearly all actives have a fitted effect of over 35% in size; also: potency is read from the fitted curve at half-maximal effect
Outline: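 Multiplexed with Caspase-Glo 3/7 in CHO-K1 cells, this counter screen added CellTiter-Fluor after 16hr of compound exposure and recorded fluorescence 1hr later.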

[19] = Caspase-3/7 induction in HepG2 cells by small molecules, qHTS cell viability counter screen (AID 1346981); also: nearly all actives have a fitted effect of over 30% in size
Outline: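 Wild-type HepG2 cells, 2,000/well, settled 5 hr at 37 C, 5% CO2 before compound addition. Viability read by CellTiter-Fluor fluorescence, reagent added after 16 hr compound exposure, then 1 hr at 37C, in the same wells as the caspase read.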

[20] = qHTS assay for small molecule agonists of the p53 signaling pathway (AID 651631; calls by dose curve; also: nearly all actives have a fitted effect of over 15% in size); settings: HCT-116 p53RE-bla reporter, beta-lactamase FRET ratio, 16 h; activation: at 73.3 µM (top of the series) unless noted
Outline: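 Quantitative high-throughput format: 4,000 p53RE-bla HCT-116 cells/well, 5 h pre-incubation, 16 h compound exposure at 37 °C, 2 h room-temperature substrate step, fluorescence intensity measured.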
Tags tell the direction and shape of the fitted curve or compound fluorescence and quenching.

Sequence of UniProt O75469 (O75469 whole entry, looked up): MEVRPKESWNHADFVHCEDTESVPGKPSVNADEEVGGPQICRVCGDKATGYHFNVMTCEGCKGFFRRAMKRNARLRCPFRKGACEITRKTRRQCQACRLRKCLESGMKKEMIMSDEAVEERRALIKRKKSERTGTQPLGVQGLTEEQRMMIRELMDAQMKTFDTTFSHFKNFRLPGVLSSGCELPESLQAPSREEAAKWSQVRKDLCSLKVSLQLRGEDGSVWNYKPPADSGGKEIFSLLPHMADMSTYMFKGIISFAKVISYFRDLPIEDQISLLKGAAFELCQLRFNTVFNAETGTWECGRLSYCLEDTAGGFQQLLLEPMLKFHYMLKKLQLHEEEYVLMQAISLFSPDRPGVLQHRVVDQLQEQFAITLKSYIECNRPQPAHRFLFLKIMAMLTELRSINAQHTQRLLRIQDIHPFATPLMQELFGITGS
Sequence of UniProt P11473 (P11473 whole entry, looked up): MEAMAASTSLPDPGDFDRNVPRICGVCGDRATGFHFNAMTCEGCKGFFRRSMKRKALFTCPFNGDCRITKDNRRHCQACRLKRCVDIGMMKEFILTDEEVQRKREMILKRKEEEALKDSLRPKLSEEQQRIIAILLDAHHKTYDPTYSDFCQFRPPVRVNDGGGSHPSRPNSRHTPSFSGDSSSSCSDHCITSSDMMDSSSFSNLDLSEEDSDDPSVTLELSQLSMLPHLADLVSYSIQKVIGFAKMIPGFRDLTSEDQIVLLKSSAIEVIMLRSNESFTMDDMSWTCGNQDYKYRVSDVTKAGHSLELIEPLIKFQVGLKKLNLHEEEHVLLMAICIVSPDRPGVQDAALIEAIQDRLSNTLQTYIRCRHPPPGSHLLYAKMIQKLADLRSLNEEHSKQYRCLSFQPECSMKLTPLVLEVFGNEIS
Sequence of UniProt Q92731 (Q92731 whole entry, looked up): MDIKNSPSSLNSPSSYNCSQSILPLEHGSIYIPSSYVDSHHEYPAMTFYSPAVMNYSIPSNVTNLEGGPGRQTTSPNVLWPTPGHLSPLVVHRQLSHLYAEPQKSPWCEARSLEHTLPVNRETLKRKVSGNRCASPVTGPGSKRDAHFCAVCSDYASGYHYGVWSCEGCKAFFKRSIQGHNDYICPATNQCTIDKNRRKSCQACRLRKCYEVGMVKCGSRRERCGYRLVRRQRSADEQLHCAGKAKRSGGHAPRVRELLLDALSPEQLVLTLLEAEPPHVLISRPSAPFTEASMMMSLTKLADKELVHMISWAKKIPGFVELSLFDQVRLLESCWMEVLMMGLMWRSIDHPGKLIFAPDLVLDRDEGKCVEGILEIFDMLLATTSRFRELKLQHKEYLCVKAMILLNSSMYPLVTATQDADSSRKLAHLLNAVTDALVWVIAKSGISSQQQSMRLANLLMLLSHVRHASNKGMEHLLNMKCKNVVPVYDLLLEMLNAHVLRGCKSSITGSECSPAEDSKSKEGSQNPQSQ

In the case of CCOC(C)(C)C, the Potency [1] is reported as “inactive” and the Potency [2] is reported as “inactive”.
For C=C[Si](C)(C)O[Si](C)(C)C=C, the Potency [3] was “inactive”, the Potency [4] was “inactive” and the Potency [5] was “inactive”.
With O=C1CCCCO1 the Potency [4] was “inactive” and the Potency [5] was inconclusive: 54.9 µM [cytotoxic, partial curve, poor fit].
With CCCCNCCCC the Potency [6] was inconclusive: 0.173 µM [cytotoxic, full curve, poor fit] and the Potency [2] was “inactive”.
For CC/C=C\CC/C=C/C(OCC)OCC, the Potency [7] was inconclusive: 68.6 µM [inhibitor, single point], the Potency [8] was inconclusive: 17.4 µM [rising, partial curve, poor fit] and the Potency [9] was inconclusive: 54.9 µM [activator, single point]. The Potency [10] was “inactive”, the Potency [11] was “inactive” and the Potency [12] was “inactive”.
With CCCCCC(C)N (centres undefined) the Potency [13] was “inactive”.
For O=C1c2ccccc2C(=O)c2c(Cl)cccc21, the Potency [14] was inconclusive: 59.9 µM [cytotoxic, single point], the Potency [15] was inconclusive: 25.9 µM [rising, partial curve] and the Potency [16] was inconclusive: 25.9 µM [rising, partial curve]. The Potency [17] was inconclusive: 25.9 µM [rising, partial curve], the Potency [11] was inconclusive: 28.9 µM [fluorescent, partial curve] and the Potency [18] was inconclusive: 36.3 µM [cytotoxic, single point].
For N#CCc1ccccc1[N+](=O)[O-], the Potency [1] was “inactive”, the Potency [11] was “inactive” and the Potency [2] was inconclusive: 60.4 µM [activator, partial curve].
In the case of CC1=CC(=O)CC(C)(C)C1=O, the Potency [3] is reported as “inactive”, the Potency [13] is reported as “inactive” and the Potency [9] is reported as “inactive”. For the same compound, the Potency [15] was “inactive” and the Potency [18] was inconclusive: 78.6 µM [cytotoxic, single point].
With CCCCN(CCO)CCO the Potency [9] was “inactive”, the Potency [4] was inconclusive: 0.346 µM [rising, partial curve] and the Potency [16] was “inactive”. The Potency [12] was “inactive”.
With CC(C)C(=O)OCc1ccccc1 the Potency [15] was inconclusive: 54.9 µM [rising, single point], the Potency [16] was inconclusive: 54.9 µM [rising, single point] and the Potency [17] was inconclusive: 61.6 µM [rising, single point].
In the case of OC(CCN1CCCCC1)(c1ccccc1)C1CC2C=CC1C2 (centres undefined), the Potency [13] is reported as inconclusive: 29.8 µM [cytotoxic, single point] and inconclusive: 13.3 µM [cytotoxic, single point], the Potency [6] is reported as inconclusive: 13.3 µM [cytotoxic, single point] and the Potency [12] is reported as inconclusive: 37.6 µM [cytotoxic, single point].
With CN1CCC(OC(c2ccccc2)c2ccccc2)CC1 the Potency [7] was inconclusive: 10.1 µM [inhibitor], the Potency [1] was “inactive” and the Potency [14] was “inactive”.
For COC(=O)c1cccc(Cl)c1, the Potency [4] was inconclusive: 15.3 µM [rising, partial curve, poor fit], the viability change, negative = cytotoxic [5] was inconclusive: -0.482% [cytotoxic] and the Potency [10] was “inactive”. For the same compound, the Potency [17] was “inactive”, the Potency [11] was “inactive” and the Potency [12] was “inactive”.
In the case of CN(C)CC[C@@H](c1ccc(Br)cc1)c1ccccn1, the Potency [14] is reported as “inactive” and the Potency [16] is reported as inconclusive: 26.8 µM [cytotoxic, single point].
For C#CC(C)(CC)OC(=O)c1ccccc1C(=O)O (centres undefined), the Potency [1] was “inactive” and the Potency [5] was “inactive”.
For CN(C)CCOC(=O)COc1ccc(Cl)cc1, the Potency [4] was inconclusive: 0.376 µM [rising, partial curve, poor fit], the Potency [1] was “inactive” and the Potency [14] was “inactive”. The Potency [11] was “inactive” and the Potency [2] was inconclusive: 60.9 µM [activator, partial curve, poor fit].
For Oc1cc(O)c2c(c1)O[C@H](c1ccc(O)c(O)c1)[C@H](O)C2, the Potency [14] was “inactive” and the Potency [18] was “inactive”.
For CC1=CC[C@@H](C(C)(C)O)CC1, the Potency [19] was “inactive”.
With COc1ccc(Cl)cc1C the Potency [20] was “inactive”, the Potency [3] was “inactive” and the Potency [10] was “inactive”. The Potency [15] was inconclusive: 65.6 µM [rising, single point], the Potency [11] was “inactive” and the Potency [12] was “inactive”.
In the case of C=C(C)C(=O)NCCC[N+](C)(C)C, the Potency [20] is reported as “inactive” and the Potency [8] is reported as inconclusive: 24.5 µM [rising, full curve].
For Clc1cccnc1, the Potency [15] was “inactive” and the Potency [11] was inconclusive: 7.7 µM [activator, full curve, poor fit].
With CC(=O)CC(C)=O the Potency [7] was “inactive” and the viability change, negative = cytotoxic [5] was inconclusive: -4.42% [cytotoxic] [at 78.8 µM].
For CN/C(=C\[N+](=O)[O-])NCCSCc1csc(CN(C)C)n1, the Potency [2] was inconclusive: 27.3 µM [activator, partial curve, poor fit].
